The other results are listed elsewhere or left out. Most values come without repeats; read them as rough.

Among the data in the supplement of paper PMC4604168 (melanoma cell lines) are cell count values, retold here.

Test systems include 501Mel; A101D; A2058; A375.
Holding throughout (assay): cell count relative to DMSO control; melanoma cells; higher = more viable cells
Holding throughout (conditions): library dose: standard library concentration; 72 h
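Further: cells treated in 1,536-well plates, then fixed and DAPI-stained, with nuclei counted from automated high-throughput microscope images.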

As for `CN(C)S(=O)(=O)c1ccc2c(c1)/C(=C/c1cc3c([nH]1)CCCC3)C(=O)N2` + N#Cc1c(O)c2c(-c3ccc(-c4ccccc4O)cc3)csc2[nH]c1=O [A769662] (first compound 2 µM, partner dose 10 µM), the cell count with 501Mel came to 86.8%; in the experiment on A101D, 83.3%; in the experiment with A2058, 98%; in the experiment with A375 it was 115%.

Regarding `OCCn1cc(-c2cnc3nnn(Cc4ccc5ncccc5c4)c3n2)cn1` + COc1ccc2c(c1)CCC1C2CCC2(C)C(NCCCCCCN3C(=O)C=CC3=O)CCC12 [U73122] (first compound 5 µM, partner dose 2 µM), the cell count with 501Mel is 97.3%; in the experiment with A101D it was 82.6%; in the experiment with A2058, 86.9%; in the experiment with A375 it was 88.9%.

`C[C@]1(c2nc3c(C(N)=O)cccc3[nH]2)CCCN1` [Veliparib] + Cn1cc(/C=C2\C(=O)Nc3cccnc32)c2ccccc21 [GW441756] (first compound 7 µM, partner dose 2 µM): the cell count in the experiment on 501Mel stood at 133%; in the experiment with A101D, 74.5%; with A2058, 83.6%; in the experiment with A375, 133%.

In the case of `CO[C@@H]1[C@H](N(C)C(=O)c2ccccc2)C[C@H]2O[C@]1(C)n1c3ccccc3c3c4c(c5c6ccccc6n2c5c31)C(=O)NC4` [Midostaurin] + CC(C)CCN1c2nc(Nc3cc(F)c(O)c(F)c3)ncc2N(C)C(=O)C1C [BID1870] (first compound 0.4 µM, partner dose 1 µM), the cell count in the experiment with 501Mel stood at 67.9%; with A101D it was 37%; in the experiment with A2058, 55.7%; in the experiment with A375, 72.3%.

Regarding `C[C@]1(c2nc3c(C(N)=O)cccc3[nH]2)CCCN1` [Veliparib] + O=C(O)C(=O)Nc1sc2c(c1C(=O)O)CCNC2 [TCS401] (first compound 7 µM, partner dose 8.33333 µM), the cell count in the experiment on 501Mel was found to be 84.3%; in the experiment with A101D it was 98.8%; in the experiment with A2058 it was 89.1%; in the experiment with A375, 139%.
